ChEMBL document CHEMBL4888484, “Replenishing the malaria drug discovery pipeline: Screening and hit evaluation of the MMV Hit Generation Library 1 (HGL1) against asexual blood stage Plasmodium falciparum ,using a nano luciferase reporter read-out” (2022)
“And” between values parts separate entries of the source, which are not always exact repeats. Equal values may be shown once. Hit rate of the full screen: of about 150,000 compounds, about 540 (0.36%) showed an effect of 50% or more. Some of the results follow.

System: Plasmodium falciparum
Assay: Primary screen in NF54 nanoGlo assay, in single point, at 2uM, 72h; a lower Z score goes with more inhibition
Type: functional, Erythrocyte
Settings: timepoint 72 hour

With `Cc1ncc(NC(=O)NC2(c3c(F)cccc3F)CCC2)c(C2CC2)n1` the “% Inhibition” value was 16% and the Z score was -2.25.

For `CNC[C@H]1CCN(S(=O)(=O)CCCC(F)(F)F)C1`, the “% Inhibition” value was -30% and the Z score was 3.53.

In the case of `O=C(CN(Cc1nccn1C(F)F)C1CC1)Nc1cc(F)ccc1F`, the “% Inhibition” value is reported as -2% and the Z score is reported as 0.28.

For `O=C(NCCOCCn1cccn1)c1cncc(F)c1`, the “% Inhibition” value was -14% and the Z score was 2.09.

For `O=C(O)C1CCC(=O)N(Cc2ccccc2)C1c1ccccc1` (stereo not drawn), the “% Inhibition” value was -9% and the Z score was 1.72.

For `CC[C@H]1C(=O)NCCCN1C(=O)c1cc(C2CC2)nc2onc(C)c12`, the “% Inhibition” value was 5% and the Z score was -0.67.

With `O=S(=O)(Cc1csc(-c2ccco2)n1)CC1CCOCC1` the “% Inhibition” value was -12% and the Z score was 1.57.

With `Cn1cc([C@H]2CN(C(=O)CCc3ccccn3)C[C@H]2CC(=O)O)nn1` the “% Inhibition” value was 0% and the Z score was -0.06.

For `CN(CCCc1cccnc1)CC[C@H]1CCCCO1`, the “% Inhibition” value was -21% and the Z score was 2.05.

For `CC1CCN(C(=O)OC(C)(C)C)C(C)C1NC(=O)CN1CCCS1(=O)=O` (stereo not drawn), the “% Inhibition” value was -2% and the Z score was 0.22.

`C[C@H]1COc2ccc(C(=O)N3CCOC4(CCC4)C3)cc21` was tested, and the “% Inhibition” value was -9% and the Z score was 1.46.

For `CCCN(CC(=O)N1CCn2cccc2[C@H]1c1cccc(F)c1)C(=O)Nc1cccc(C)c1`, the “% Inhibition” value was -1% and the Z score was 0.11.

With `CCCc1cc(N2CCN(c3ncccc3C)CC2)n2nccc2n1` the “% Inhibition” value was -15% and the Z score was 2.02.

With `C[C@@H](Cc1ccsc1)NC(=O)N(C)CC1CCC1` the “% Inhibition” value was -4% and the Z score was 0.49.

In the case of `CCN(CC)CCN(CC(C)C)C(=O)c1ccccn1`, the “% Inhibition” value is reported as -11% and the Z score is reported as 1.38.

With `CCc1cccc(S(=O)(=O)Nc2nonc2C)c1` the “% Inhibition” value was -9% and the Z score was 1.05.

For `Cc1cccc(N2CCN(S(=O)(=O)c3ccc(-c4nnc(C)o4)o3)CC2)c1`, the “% Inhibition” value was 2% and the Z score was -0.32.

With `CS(=O)(=O)N1CCOC[C@H](Oc2ccccc2)C1` the “% Inhibition” value was 1% and the Z score was -0.17.

`C[C@H](NS(=O)(=O)c1ccc2c(c1)NC(=O)CO2)c1cccnc1` was tested, and the “% Inhibition” value was 4% and the Z score was -0.73.

For `CCOc1cc(C(C2C(=O)N(CC)c3ccccc32)C2C(=O)N(CC)c3ccccc32)cc(Br)c1OCC` (stereo not drawn), the “% Inhibition” value was 1% and the Z score was -0.1.

`CCc1cc2c(NC3CCCC3)ncnc2s1` was tested, and the “% Inhibition” value was -16% and the Z score was 1.49.

For `CS(=O)(=O)CC(=O)N[C@H]1CC[C@@H](C(=O)N2CCCCC2)C1`, the “% Inhibition” value was 4% and the Z score was -0.6.

`CCc1nc[nH]c1C(=O)N[C@H]1C[C@H](c2ccc(F)cc2F)C1` was tested, and the “% Inhibition” value was -15% and the Z score was 2.38.

`CO[C@H]1CCCN(Cc2cnoc2C)C1` was tested, and the “% Inhibition” value was 6% and the Z score was -0.71.

`O=C(NC1CC1C1CCCCC1)N1CCC[C@@H]1CO` (stereo partly drawn) was tested, and the “% Inhibition” value was -5% and the Z score was 0.8.

`COc1cc2c(cc1OC)CN(C(=O)c1cc(=O)c(OCc3ccc(Cl)cc3)c[nH]1)CC2` was tested, and the “% Inhibition” value (2 µM) was 4% and 10% and the Z score (2 µM) was -0.8 and -1.11.

`COc1ccc([C@@H](O)Cn2cnc(C(=O)N3CCN(c4ccccn4)CC3)n2)cc1` was tested, and the “% Inhibition” value was -1% and the Z score was 0.11.

With `C=C[C@H]1OCC[C@@H]1NC(=O)c1cnn(CCC)c1` the “% Inhibition” value was 2% and the Z score was -0.35.

With `COc1ccc(-c2cc(CN(Cc3ccco3)C(=O)NCc3ccccc3)no2)cc1` the “% Inhibition” value was -12% and the Z score was 1.83.

For `CCCc1cc(CNS(=O)(=O)c2cc(-c3cnc(C)o3)ccc2C)on1`, the “% Inhibition” value was -1% and the Z score was 0.11.

For `CC(C)[C@H](Oc1cccc(Cl)c1)C(=O)NCc1nccc(N)n1`, the “% Inhibition” value was -8% and the Z score was 0.9.

For `Cc1ccccc1CNS(=O)(=O)c1cc(C(=O)N2CCCCCC2)cs1`, the “% Inhibition” value was 3% and the Z score was -0.31.

In the case of `CCN(Cc1ccoc1)C(=O)NCC1(N(C)C)CCCC1`, the “% Inhibition” value is reported as 2% and the Z score is reported as -0.16.

`Cc1ccc(NC(=O)c2c(NC(=O)c3cccc4ccccc34)sc(C)c2C)cc1` was tested, and the “% Inhibition” value was -17% and the Z score was 2.18.

With `Cc1ccc([C@H]2CN(C(=O)c3ccc4cc[nH]c4c3)C[C@@H]2N(C)C)cc1` the “% Inhibition” value was -9% and the Z score was 0.92.

In the case of `CCNC(=O)c1coc(CN(Cc2cccc(F)c2)Cc2ccc3c(c2)OCO3)n1`, the “% Inhibition” value is reported as 1% and the Z score is reported as -0.11.

In the case of `CNC(=O)c1nnsc1OC(C)(C)CC(C)=O`, the “% Inhibition” value is reported as -13% and the Z score is reported as 1.58.

With `NC(=O)c1ncn(-c2ccncc2)c1N` the “% Inhibition” value was 27% and the Z score was -3.

For `CC1CC(CN2CCC(NS(=O)(=O)c3cccs3)CC2)CCO1` (stereo not drawn), the “% Inhibition” value was -5% and the Z score was 0.51.

`COc1ccc(NCc2c(C)nn(C)c2Oc2cccnc2)c(C)n1` was tested, and the “% Inhibition” value was -14% and the Z score was 2.17.

With `Cc1ncsc1-c1cc(-c2ccnn2-c2ccccc2)c(C#N)c(N)n1` the “% Inhibition” value was 0% and the Z score was 0.03.

For `CCc1cc(N2CCC[C@@]3(CCC(=O)N(CCc4c[nH]cn4)C3)C2)nc(C)n1`, the “% Inhibition” value was -3% and the Z score was 0.47.

With `O=C(NCc1ccco1)c1cnc(-c2ccccc2)nc1N1CCC(Cc2ccccc2)CC1` the “% Inhibition” value was -20% and the Z score was 3.5.

In the case of `Cn1ccnc(N2CC[C@H](c3cccc(Oc4ccccc4)c3)C2)c1=O`, the “% Inhibition” value is reported as -3% and the Z score is reported as 0.42.

For `Fc1ccc([C@@H]2CN(c3ncc(C(F)(F)F)cc3Cl)CCO2)cc1`, the “% Inhibition” value was -14% and the Z score was 1.78.

`CC[C@H](C)NS(=O)(=O)c1c(C)c(C)cc2c(C)c(C(=O)N3CCCC3)oc12` was tested, and the “% Inhibition” value was -6% and the Z score was 0.73.

With `C[C@@H](O)[C@@H]1NC(=O)[C@H]2CN(S(=O)(=O)c3ccc4ccccc4c3)CCN2C1=O` the “% Inhibition” value was -19% and the Z score was 2.26.

`O=C1CN(C(=O)CCCc2ncc(-c3ccccc3)o2)CCN1` was tested, and the “% Inhibition” value was -13% and the Z score was 2.52.

In the case of `COc1ccc(COCCCNc2ncc(C)cn2)cc1`, the “% Inhibition” value is reported as -4% and the Z score is reported as 0.57.

For `O=C(Nc1ccc2nc3n(c(=O)c2c1)CCCC3)[C@@H]1COc2ccccc2O1`, the “% Inhibition” value was 2% and the Z score was -0.38.

`Cc1ccc(CN2C[C@@H](C(=O)O)C[C@@H](C(=O)NCc3cccnc3)C2)cc1` was tested, and the “% Inhibition” value was -9% and the Z score was 1.38.

`CC(C)Cn1ncnc1CN(C)C1(CO)CCOCC1` was tested, and the “% Inhibition” value was 1% and the Z score was -0.1.

`CN(C)C(=O)c1nnsc1NC(=O)Nc1ccncc1` was tested, and the “% Inhibition” value was -5% and the Z score was 0.72.

In the case of `Cc1ccc(-n2c(C)c(CNC[C@H](C)c3ccccc3)c(C(=O)O)c2C)cc1`, the “% Inhibition” value is reported as 7% and the Z score is reported as -0.92.

In the case of `COc1ccc(-c2nnc(C)o2)cc1NC(=O)c1ccnn1C(C)C`, the “% Inhibition” value is reported as -14% and the Z score is reported as 1.8.

In the case of `COCc1c(C(=O)N2CC3CCC2C3)c(=O)cc(C)n1CCCc1ccccc1` (stereo not drawn), the “% Inhibition” value is reported as -15% and the Z score is reported as 2.67.

With `COc1cc(C(=O)N2CCCC[C@@H]2CCN2CCCCC2)cc(OC)c1OC` the “% Inhibition” value was -11% and the Z score was 1.43.

In the case of `CCC(C)(C)NC(=O)Nc1cccnc1`, the “% Inhibition” value is reported as -4% and the Z score is reported as 0.55.

For `NC(=O)CN1C(=O)[C@]2(CCN(C(=O)C3CCOCC3)C2)c2ccccc21`, the “% Inhibition” value was 3% and the Z score was -0.32.

For `COc1cc(F)c(C(C)NC2C[C@@H]3COC[C@H]23)cc1OC` (stereo partly drawn), the “% Inhibition” value was -1% and the Z score was 0.15.

`O[C@@H](CNC1CCN(C2CCC2)CC1)c1ccc(F)cc1Cl` was tested, and the “% Inhibition” value was 4% and the Z score was -0.73.

In the case of `O=C(Nc1cc([C@@H]2CCCO2)n[nH]1)C1CCN(C2CC2)CC1`, the “% Inhibition” value is reported as -12% and the Z score is reported as 1.16.

For `CS(=O)(=O)N1C[C@H]2CC[C@@H](C1)N(CCCC(=O)c1ccc(F)cc1)C2`, the “% Inhibition” value was -7% and the Z score was 1.02.

In the case of `CCc1cccc(C)c1-n1nnnc1[C@](C)(CC)N1CCN(C(=O)c2ccco2)CC1`, the “% Inhibition” value is reported as 3% and the Z score is reported as -0.36.

With `NC(=O)CC(=O)NC12CCC(C(F)(F)F)(CC1)CC2` the “% Inhibition” value was -6% and the Z score was 0.81.

With `O=C(C1CCCC1)N1CCN(Cc2ccc3c(c2)OCO3)CC1` the “% Inhibition” value was 4% and the Z score was -0.51.

In the case of `COCCON1C(=O)C[C@H](C(=O)OC)C12CCN(C(=O)c1cccc(F)c1F)CC2`, the “% Inhibition” value is reported as -12% and the Z score is reported as 2.03.

With `COc1ccc(F)c(CN2CCCN(S(=O)(=O)N3CCCCC3)CC2)c1F` the “% Inhibition” value was -1% and the Z score was 0.14.

`Cc1cc(NCc2cn3cccnc3n2)ccc1-n1nnnc1C(C)C` was tested, and the “% Inhibition” value was -13% and the Z score was 1.66.

For `CCC(CC)C(=O)N1CCN(c2cc(N3CCOCC3)ncn2)CC1`, the “% Inhibition” value was -10% and the Z score was 0.91.

`COc1ccccc1-c1cc2nc(C)cc(N3CCN(Cc4ccccc4)CC3)n2n1` was tested, and the “% Inhibition” value was -10% and the Z score was 1.85.

In the case of `O=C1CC[C@H](NS(=O)(=O)Cc2cccc(C(F)(F)F)c2)CN1`, the “% Inhibition” value is reported as -6% and the Z score is reported as 0.96.

In the case of `OCC1CN(c2ccnc(Cc3ccccc3)n2)C1`, the “% Inhibition” value is reported as -9% and the Z score is reported as 1.12.

For `C[C@H](NC(=O)c1cccc(N(C)C)c1)C(N)=O`, the “% Inhibition” value was 4% and the Z score was -0.62.

`CN1CCCN(c2ccc(S(=O)(=O)C(F)F)cc2)CC1` was tested, and the “% Inhibition” value was -35% and the Z score was 4.08.

With `CC[C@@H](c1ccc(Br)cc1)N(C)CCn1cnnc1` the “% Inhibition” value was -4% and the Z score was 0.43.

`CS(=O)(=O)c1cnn(Cc2cc(Cl)c3c(c2)OCCCO3)c1` was tested, and the “% Inhibition” value was -8% and the Z score was 0.88.

In the case of `Cc1cc(C(=O)Nc2cccc(-c3nnco3)c2)no1`, the “% Inhibition” value is reported as -8% and the Z score is reported as 1.06.

For `Cc1cc(C(=O)Nc2sc(Cc3ccccc3)cc2C(N)=O)no1`, the “% Inhibition” value was -21% and the Z score was 2.91.

In the case of `CCc1ccc(CC(=O)N2CCC[C@]3(CCC(=O)N(C4CC4)C3)C2)cc1`, the “% Inhibition” value is reported as 13% and the Z score is reported as -1.69.

For `CN(Cc1nnn(CC(=O)c2ccnn2C)n1)C(=O)c1ccccc1`, the “% Inhibition” value was -3% and the Z score was 0.41.

In the case of `O=C(COc1ccccc1)N1CC(OCC(F)(F)F)C1`, the “% Inhibition” value is reported as 0% and the Z score is reported as -0.02.

`C=CCN(Cc1ccc(F)cc1)C(=O)c1ccc(CN2CCN(C)CC2)o1` was tested, and the “% Inhibition” value was 16% and the Z score was -2.04.

For `O=C(C1CCCCC1C(=O)N1CCCC(O)C1)N1CCCC1` (stereo not drawn), the “% Inhibition” value was -7% and the Z score was 1.3.
